# Measurements taken from the supplement of paper PMC7826260.
# The list shows a part of the results. The data describe in vitro nicking of single-stranded DNA by Rep domains for 1 h at 37 °C with 3 µM enzyme; only the middle of the 90-letter strands is printed. Values are log2 of uncut reads against the no-enzyme pool; more negative means more cut, near 0 not cut, and no call is made. The scaling is to total reads; values above 0 arise when much of the pool is cut.
# Tested on: T1, Rep nickase domain of tomato golden mosaic virus
# T1 sequence (Rep 1-124, printed without the tag): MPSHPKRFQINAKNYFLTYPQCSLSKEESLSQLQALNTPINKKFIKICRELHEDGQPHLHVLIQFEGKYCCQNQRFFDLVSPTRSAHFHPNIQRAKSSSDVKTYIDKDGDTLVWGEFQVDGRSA
# Experiment: uncleaved DNA left, log2 of reads against the no-enzyme library (log2 ratio); higher = less cleavage (more negative = more Rep cleavage of the k-mer); sequences stand for … in CTCGTCCG…ACCGGAGA
# Description: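 A pool of 90-nt single-stranded DNAs with seven random bases just before the constant AC of the nick site (name = the seven bases) was cut by 3 µM recombinant His6-SUMO-tagged Rep nickase domain (300 nM DNA, 50 mM HEPES pH 8.0, 50 mM NaCl, 1 mM MnCl2, 1 h, 37 °C, three replicates). Uncut DNA was amplified and sequenced.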
row,Sequence,uncleaved DNA left (log2)
1,TTCAAGC,-0.0415
2,GAGAGGA,0.13
3,TCGTCAT,-0.138
4,GGGTAAA,0.0863
5,GAATGTC,0.0566
6,CTAGTCT,-0.14
7,ATCGAGC,0.0177
8,AGGCGCG,0.13
9,GCTGAGC,0.0602
10,GAATTGA,-0.0154
11,GCACGCC,-0.0357
12,TTTTCGG,0.0826
13,ACTATCC,-0.0522
14,TTTTCGT,-0.139
15,TAGCCGC,-0.302
16,ACGTGTT,-0.145
17,CCCTAGG,0.267
18,TATAGTA,-0.125
19,AAGAGAA,0.139
20,CTTCTAA,-0.0274

row,Sequence,uncleaved DNA left (log2)
1,GGGACCC,-0.0681
2,GCCTACG,-0.0166
3,CCACGGA,-0.00201
4,ATCGGAC,0.0254
5,GTCATAC,-0.081
6,TCACACA,0.0193
7,TTTTGTA,0.0179
8,TAGGTTC,-0.068
9,TTTGTGA,-0.0331
10,TGCATAT,-0.181
11,ATAAACA,0.0829
12,GGGTCAT,0.0574
13,GCCGACG,0.0524
14,GACCCAG,0.0703
15,ATGCGCA,-0.0584
16,CTGATTA,0.0469
17,GGTGAAC,0.0999
18,TGACCAA,-0.0414
19,TATGCAG,-0.0249
20,ACCACCC,-0.119
